# Laboratory results from paper PMC6919601, “Identification of Plasmodium dipeptidyl aminopeptidase allosteric inhibitors by high throughput screening” (PLoS ONE, 2019).
# Where “and” joins values, the source holds several entries; their conditions need not be identical. Equal entries are not always repeated. Out of some 110,000 compounds screened, about 230 (0.21%) showed an effect of 50% or more. The list shows a part of the results.
# Target: DPAP1 (Plasmodium falciparum, UniProt Q8IIJ9)
# Test: primary screen, percent inhibition; read by cleavage of a fluorogenic dipeptide substrate; higher = more effect of the substance
# Design: species or system P. falciparum D10 trophozoite lysates; single well
# 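Also: 30 min substrate incubation versus DMSO and 10 µM JCP410 controls.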
# Sequence of DPAP1 (Q8IIJ9 whole entry, looked up): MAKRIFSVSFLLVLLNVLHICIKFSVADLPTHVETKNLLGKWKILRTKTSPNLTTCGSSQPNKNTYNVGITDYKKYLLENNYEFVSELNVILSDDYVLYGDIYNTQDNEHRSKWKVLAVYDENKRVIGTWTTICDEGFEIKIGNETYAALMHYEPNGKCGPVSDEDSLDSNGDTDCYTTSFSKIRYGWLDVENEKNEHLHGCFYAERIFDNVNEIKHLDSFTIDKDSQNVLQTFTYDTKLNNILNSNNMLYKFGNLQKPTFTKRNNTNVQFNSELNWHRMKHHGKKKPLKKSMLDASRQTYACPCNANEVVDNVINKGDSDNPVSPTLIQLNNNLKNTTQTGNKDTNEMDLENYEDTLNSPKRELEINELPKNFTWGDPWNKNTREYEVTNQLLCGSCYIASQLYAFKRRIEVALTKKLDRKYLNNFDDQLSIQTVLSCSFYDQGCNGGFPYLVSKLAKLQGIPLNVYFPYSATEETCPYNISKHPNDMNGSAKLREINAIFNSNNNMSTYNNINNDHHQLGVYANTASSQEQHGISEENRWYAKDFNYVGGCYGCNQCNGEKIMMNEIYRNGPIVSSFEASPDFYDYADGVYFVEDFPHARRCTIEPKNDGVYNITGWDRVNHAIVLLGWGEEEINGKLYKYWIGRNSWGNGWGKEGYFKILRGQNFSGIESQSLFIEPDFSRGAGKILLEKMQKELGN
row,Compound,% Inhibition @ 10 uM
1,CSc1nc(Oc2cccc(C)c2)cc(-n2nc(C)c(C#N)c2N)n1,-0.725%
2,COc1cccc(CNC(=O)c2cn(C3CCCC3)c(=O)c3c2c2ccccc2n3C)c1,-1.58%
3,COc1ccc(OC)c(NC(=O)c2sc3ccccc3c2Cl)c1,-1.5%
4,CC(NC(=O)c1cccc2c1C(=O)N(C1CCCCC1)C2)c1ccccc1 (centres unmarked),4.01%
5,CC(C)c1ccc(OCCN2CCCCC2)cc1,3.76%
6,Cc1ccc(-c2cc(C(F)(F)F)n3ncc(C(=O)NCc4cn(C)nc4C)c3n2)cc1,0.24%
7,CCOC(=O)N1CCC(N2Cc3cccc(C(=O)NCc4ccccn4)c3C2=O)CC1,2.9%
8,CC1(C)CC2=Nc3sc(C#N)c(N)c3C(c3ccccc3)C2=C(O)C1 (centres unmarked),6.08%
9,CC(NC(=O)c1cc2c(s1)-c1ccccc1OC2)c1ccc2c(c1)OCCO2 (centres unmarked),-3.08%
10,O=C(c1cccnc1)n1nc(-c2ccco2)nc1NCc1cccs1,-6.98%
11,c1ccc(-c2ccc(NC3CCCC3)nn2)cc1,-4.8%
12,COc1ccc(C(=O)Nc2ccc(Br)c(C)c2)c(OC)c1,-6.33%
13,O=C(Nc1nnc(S(=O)(=O)NCc2ccccc2)s1)C1CCCCC1,1.68%
14,CCN1CCN(CCNC(=O)c2ccc3c(c2)c(C)c(C)n3C)CC1,2.29%
15,CC(=O)Nc1ccc(Oc2cccc(Oc3ccc(NC(C)=O)cc3)c2)cc1,-6.02%
16,O=C(NCCc1ccc(Cl)cc1)c1coc2nc3ccccc3nc12,3.04%
17,Cc1[nH]c2ccc(C(=O)N3CCOCC3)cc2c1C,4.27%
18,Fc1ccc(N2CCN(Cc3ccccc3)CC2)cc1,-0.192%
19,COc1cc2c(cc1NC(=O)Nc1cccc(C)c1)oc1ccccc12,-9.2%
20,CSc1nc(-c2ccccc2)nc(N2CCN(C)CC2)c1C(C)=O,6.7%
21,CC1CCN(c2c(NCc3ccc(C(=O)NCc4ccccc4Cl)cc3)c(=O)c2=O)CC1,-4.26%
22,Cc1ccc(S(=O)(=O)Cc2ccc(C(=O)N3CCC(C(N)=O)CC3)o2)cc1,-10.3%
23,Cc1ccc(-n2nc3c(=O)n(CCCC(=O)N4CCC5(CC4)OCCO5)nc(C)c3c2C)cc1,-6.33%
24,Cc1ccc(-c2nc(CS(=O)(=O)CC(=O)N(C)Cc3ccccc3)c(C)o2)cc1,-3.93%
25,COc1ccc(CNc2nc(-c3ccc(Cl)cc3)nn2C(=O)Cc2ccc(OC)cc2)cc1,-1.11%
26,COc1cc(C2NC(=O)NC(O)(C(F)(F)F)C2C(=O)c2cccnc2)cc(OC)c1OC (centres unmarked),5.46%

row,Compound,% Inhibition @ 10 uM
1,COc1cccc(CN2CCN(Cc3cccc(Br)c3)CC2)c1OC,3.7%
2,COc1ccc(-c2ccc3c(N)c(C#N)sc3n2)cc1,-3.63%
3,CCOc1ccc(-n2c(CNC(=O)c3ccco3)nnc2SCC(=O)Nc2nccs2)cc1,1.91%
4,O=C(CN(c1ccc2c(c1)OCCO2)S(=O)(=O)c1ccccc1)NCc1ccc(Cl)cc1,-6.39%
5,OC1CCN(c2ccc(Cl)cn2)CC1,-1.2%
6,Cc1cccc(CN2CCN(CC(=O)N3CCCCCC3)C2=O)c1,-1.27%
7,COc1ccc(-c2nc(CSCC(=O)N3CCN(C(=O)c4ccco4)CC3)c(C)o2)cc1OC,3.99%
8,Cc1nc2nc(C)c(Br)c(O)n2n1,-2.8%
9,CCc1ccc(NC(=O)CSc2ncn(-c3ccccc3)n2)cc1,5.39%
10,COc1cccc(/C=C/c2nc(C#N)c(N(C)C)o2)c1,2.54%
11,Cc1cc(C)nc(SCc2nc3ccc(Cl)cn3c2Cl)n1,0.906%
12,CC1CCCCC1NC(=O)c1cc2c(s1)CS(=O)(=O)C2 (centres unmarked),-4.86%
13,COc1cc(OC)cc(C(=O)Nc2ccc(C)cc2C(=O)O)c1,-0.891%
14,CN(C)c1ccnc(Oc2ccccc2Cl)c1C#N,-0.712%
15,CCn1cc(/C=C2/NC(=O)N(Cc3cccc(C)c3)C2=O)c2ccccc21,-12.5%
16,NC(=O)C1c2ccccc2CSc2ccccc21 (centres unmarked),-15.6%
17,COc1cccc(-c2ccc3c(N)c(C(=O)Nc4ccc(OC)c(OC)c4)sc3n2)c1,-9.68%
18,COc1ccc(CCN2C(=O)CC3CCCCC3C2=O)cc1OC (centres unmarked),-4.31%
19,CCOc1ccc(-c2[nH]cnc2[N+](=O)[O-])cc1,3.48%
20,COc1cc(-c2nnc3sc(-c4cccnc4)nn23)cc(OC)c1OC,14.3%
21,Cc1ccc(NC(=O)c2cc3ccccc3oc2=O)c(C)c1,4.6%
22,CC1(C)CC(=O)C2=C(C1)N(c1ccccc1)C(N)=C(C#N)C2c1ccccc1 (centres unmarked),-3.19%
23,Cc1sc(NC(=O)/C=C/C(=O)O)c(C#N)c1C,-0.906%
24,Cc1c2cnn(CC(=O)NCCC3=CCCCC3)c(=O)c2c(C)n1Cc1ccccc1,4.4%
25,CC1(C)CC(NC(=O)c2ccccc2)CC(C)(C)N1O,2.8%
26,CCOC(=O)c1c(N)n(C(=O)c2ccccc2)[nH]c1=O,-2.05%

row,Compound,% Inhibition @ 10 uM
1,CCc1ccc(C2C=C(c3ccc(Br)cc3)Nc3nnnn32)cc1 (centres unmarked),0.0842%
2,N#CC(C(=O)NCc1ccco1)c1ccccc1 (centres unmarked),-6.42%
3,CC(/C=C(\O)c1cccnc1)=N\c1cccc(Cl)c1C,-10.2%
4,CCCCSc1nnc2c(n1)OC(c1ccccc1)Nc1ccccc1-2 (centres unmarked),-6.88%
5,OC(COc1ccc(Cl)cc1)CN1CCC(Cc2ccccc2)CC1 (centres unmarked),-3.94%
6,O=C(Nc1ccccn1)Nc1cccs1,-1.7%
7,CC(C)OCCCNC(=O)CN1C(=O)c2ccccc2S1(=O)=O,-0.671%
8,O=C(NCCC1=CCCCC1)C1CCN(c2nn3cc(-c4ccc(F)cc4)nc3s2)CC1,4.11%
9,Cc1cc(/C=C2\C(=O)NC(=O)N(C)C2=O)c(C)n1-c1ccccc1F,18.3%
10,COc1cccc(NC(=O)c2cc(NC(=O)c3ccccc3)cc(NC(=O)c3ccccc3)c2)c1,-1.61%
11,COc1ccc(S(=O)(=O)Nc2ccc(S(=O)(=O)N3CCOCC3)cc2)c(Cl)c1Cl,4.81%
12,COC(=O)C1=CN(C(C)C)C=C(C(=O)OC)C1c1ccsc1,1.86%
13,COc1ccc(-n2c(Cc3cccn3C)nnc2SCC(=O)N2CCOCC2)cc1,2.74%
14,CCSC1=C(C#N)C(c2ccccc2C)CC(=O)N1 (centres unmarked),-8.98%
15,CC(=O)NCCOc1c(C)cc(S(N)(=O)=O)cc1C,2.1%
16,OC1C2(c3ccccc3)CN3CC1(c1ccccc1)CN(C2)C3c1c[nH]c2ccccc12 (centres unmarked),1.9%
17,COc1cc(-c2nc3c4c(C)c(C)oc4ncn3n2)cc(OC)c1OC,-1.88%
18,CC1(C)CC(=O)c2c(nc3ccccc3c2NCc2ccccc2)C1,0.611%
19,COc1ccccc1C(=O)NCC1CCCO1 (centres unmarked),1.54%
20,O=C1c2ccccc2C(=O)N1CC(=O)n1nc(-c2cccnc2)nc1NCc1ccc(F)cc1,0.558%
21,COc1cccc(Cn2c(C)c(CNCc3ccc(C)o3)c(C(=O)O)c2C)c1,2.99%
22,N#Cc1ccc(-c2ccc3c(c2)OCO3)nc1SCC(=O)Nc1cc(F)ccc1F,-2.77%
23,C=CC(=O)NC1(CC(C)CC)CCCCC1 (centres unmarked),4.03%
24,CC(C)C[C@H](NC(=O)c1ccc(OCCCc2ccccn2)cc1)C(=O)NCC#N,-0.778%
25,O=C(O)C1C2C=CC3(CN(CCc4ccccc4)C(=O)C13)O2 (centres unmarked),-3.74%
26,COc1cc2c(cc1OC)C(O)C(C)(C)NC2 (centres unmarked),2.22% and 1.72%

row,Compound,% Inhibition @ 10 uM
1,NS(=O)(=O)c1cccc(Nc2nc3ccccc3nc2NS(=O)(=O)c2ccccc2)c1,-2.72%
2,CC(=O)N1CCc2c(sc3nc(SCc4cccc(F)c4)n(Cc4ccco4)c(=O)c23)C1,2.97%
3,Cc1ccc(Cn2c(=N)n(CCO)c3ccccc32)cc1,3.81%
4,COc1ccc(Cl)cc1C(=O)O/N=C1/C=C(C(C)C)C(=O)C=C1C,-2.14%
5,Cc1ccc(CNC(=O)c2nnc(Cc3c(F)cccc3Cl)o2)cc1,1.49%
6,Cc1c(C(=O)NC2CCCCCC2)cccc1[N+](=O)[O-],-4.15%
7,CCN(CC)C(=O)C1CCCN(Cc2ccccc2C(F)(F)F)C1 (centres unmarked),4.81%
8,Cc1ccccc1NS(=O)(=O)c1cc(Cl)ccc1Cl,0.247%
9,CNS(=O)(=O)c1ccc(Oc2ccc(S(=O)(=O)NC)cc2)cc1,-3.55%
10,O=C(Cn1nc(Cc2cccnc2)c2ccccc2c1=O)N1CCOCC1,-1.21%
11,CCCCOC(=O)C1=C(C)NC(=O)NC1c1ccccc1OCC (centres unmarked),18.1%
12,CCOc1ccc(C(=O)C2=C(O)C(=O)N(CC3CCCO3)C2c2cccs2)cc1 (centres unmarked),1.57%
13,CCOC(=O)c1[nH]c(C)c(C(=O)C(C)CC)c1C (centres unmarked),-0.274%
14,O=C(NCCc1c[nH]c2ccccc12)C(Cc1ccccc1)N1Cc2ccccc2C1=O (centres unmarked),0.0322%
15,CCn1c2ccccc2c2cc(CN3CCN(CCO)CC3)ccc21,3.48%
16,CCCN1C(=O)c2ccccc2NC1c1ccc(O)c(OC)c1 (centres unmarked),-0.48%
17,Fc1ccccc1N1CCN(Cc2ccccc2Cl)CC1,-0.192%
18,Cc1cc(C)n(-c2cc(N3CCOCC3)ncn2)n1,0.708%
19,O=S(=O)(Nc1cccc(O)c1)c1ccc(Cl)cc1,-0.546%
20,CCOC(=O)N1CCN(c2c(NCCCN3CCCC(C)C3)c(=O)c2=O)CC1 (centres unmarked),-1.65%
21,CN1CCc2nc3sc(C#N)c(N)c3c(-c3cccs3)c2C1,-4.43%
22,Cc1ccc(-c2nc(C(=O)NC3CCN(Cc4ccccc4)CC3)c3n2CCCCC3)cc1,1.97%
23,CS/C(=N\CC1CCCO1)Nc1[nH]nc(C)c1-c1ccccc1F (centres unmarked),2.73%
